# Measured values as given in PubChem BioAssay AID2675 (National Center for Advancing Translational Sciences (NCATS), 2010).
# Screen size: about 280,000 compounds; about 100 (0.036%) were called active. Inconclusive results, whose numbers are uncertain, are shown with a selection of clear calls. Calls follow the shape of the dose curve; as a rule, active = well fitted inhibition curve with a large enough effect in the signal ratio, with a control signal flat (not every such curve was filed as active); inconclusive = small, poorly fitted or top-dose-only effect, or effect the other way, or a change in a side signal; inactive = no such curve, though single readings can be large or run the other way; the % refers to the signal ratio. Potencies of inconclusive entries are doubtful fits and often do not repeat. “Side channel” marks fits to a control or component signal instead of the main read-out.
# Target: Muscleblind-like protein 1 (Homo sapiens) (UniProt Q9NR56)
# Assay: qHTS Assay for Inhibitors of MBNL1-poly(CUG) RNA binding
# Conditions: TR-FRET MBNL1-His/biotin-(CUG)12 binding, 665/545 ratio; series mostly up to 57.5 µM
# Method in brief: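 Compounds (final 92 nM to 58 uM) are added to His-tagged MBNL1 and biotin-(CUG)12, then terbium anti-His antibody and streptavidin-XL665 (5 nM final). After 60 min at room temperature, the 665/545 nm ratio is read.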
# Potency is read from the fitted curve at half-maximal effect; tags tell the direction and shape of the fitted curve or compound fluorescence and quenching.
# UniProt Q9NR56, sequence (Q9NR56 whole entry, looked up): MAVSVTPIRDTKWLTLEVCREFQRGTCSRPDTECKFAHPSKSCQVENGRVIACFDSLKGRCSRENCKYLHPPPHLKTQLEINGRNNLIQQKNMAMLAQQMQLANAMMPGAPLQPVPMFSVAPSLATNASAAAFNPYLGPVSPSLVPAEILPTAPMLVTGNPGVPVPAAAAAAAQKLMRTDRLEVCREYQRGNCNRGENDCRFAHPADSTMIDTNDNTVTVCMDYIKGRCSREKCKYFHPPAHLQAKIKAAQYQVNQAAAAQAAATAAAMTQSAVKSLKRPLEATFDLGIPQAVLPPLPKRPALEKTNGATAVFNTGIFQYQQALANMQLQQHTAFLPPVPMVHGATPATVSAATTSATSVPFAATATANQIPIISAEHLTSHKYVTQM
row,Structure (SMILES),Potency
1,O=C1CC(N2CCOCC2)=NN1c1ccc([N+](=O)[O-])cc1,"inconclusive: 14.1 µM [quencher, side channel, partial curve]"
2,Cc1cnc(-c2nnc(N(C)C(=O)C3CCOC3)s2)cn1 (stereo not given),"inconclusive: 17.8 µM [quencher, side channel, partial curve]"
3,Cc1ccccc1OCc1nc(-c2ccc(NC(=O)c3ccco3)cc2)no1,inactive
4,NS(=O)(=O)c1ccc(Cl)cc1[N+](=O)[O-],"inconclusive: 20 µM [quencher, side channel, partial curve]"
5,COc1ccc(Nc2nc(NCC3CCCO3)nc(N)c2[N+](=O)[O-])cc1 (stereo not given),"inconclusive: 2.82 µM [quencher, side channel, full curve]"
6,COc1ccc(C(CC(=O)Nc2cc([N+](=O)[O-])ccc2OC)c2ccccc2)cc1 (stereo not given),"inconclusive: 22.4 µM [fluorescent, side channel, partial curve]"
7,NS(=O)(=O)c1ccc(CCNc2ccccc2[N+](=O)[O-])cc1,"inconclusive: 15.8 µM [quencher, side channel, partial curve]"
8,CC/C(C)=N\Nc1nc(-c2cc3cc(OC)ccc3oc2=O)cs1,"inconclusive: 25.1 µM [quencher, side channel, partial curve]"
9,CCSc1nnc(Cn2c(=O)sc3ccccc32)n1-c1ccccc1C,"inconclusive: 0.178 µM [fluorescent, side channel, full curve]"
10,CCN1CCN(c2ccc([N+](=O)[O-])cc2S(=O)(=O)N2CCOCC2)CC1,"inconclusive: 10 µM [quencher, partial curve]"
11,CC1(C)Cc2c(sc3ncnc(N)c23)CO1,inactive
12,CCn1c(CN2CCN(Cc3ccc(C)cc3)C(CCO)C2)nc2ccccc21 (stereo not given),inactive
13,CCOC(=O)Cc1ccc(NC(=O)c2cccc([N+](=O)[O-])c2)cc1,"inconclusive: 14.1 µM [quencher, side channel, partial curve]"
14,O=c1[nH]c2cc3c(cc2cc1C(c1nnnn1CC1CCCO1)N1CCCCCC1)OCO3 (stereo not given),"inconclusive: 22.4 µM [quencher, side channel, partial curve, poor fit]"
15,Cc1ccc2cc(CN(CCO)Cc3nnnn3Cc3ccc(F)cc3)c(=O)[nH]c2c1,"inconclusive: 12.6 µM [quencher, side channel, partial curve]"
16,Cc1ccc(C(=O)O)cc1NC(=O)c1ccc2c(c1)C(=O)N(c1ccc([N+](=O)[O-])cc1)C2=O,"inconclusive: 15.8 µM [quencher, side channel, partial curve]"
17,N#Cc1nc(COc2cccc(Cl)c2)oc1N1CCN(c2ccccc2)CC1,"inconclusive: 39.8 µM [quencher, side channel, single point]"
18,Cc1ccc(NC(=O)c2ccc(-n3cccn3)c([N+](=O)[O-])c2)cc1,"inconclusive: 14.1 µM [quencher, side channel, partial curve]"
19,CNC(=S)N1CCN(S(=O)(=O)c2ccc3ccccc3c2)CC1,"inconclusive: 31.6 µM [quencher, side channel, single point]"
20,O=C(CCCN1C(=O)/C(=C/c2ccccc2Cl)SC1=S)NCCCN1CCOCC1,"inconclusive: 39.8 µM [quencher, side channel, single point]"
21,Cc1cc(C)n(CCC(=O)N/N=C/c2cccc([N+](=O)[O-])c2)n1,"inconclusive: 14.1 µM [quencher, side channel, partial curve]"
22,O=[N+]([O-])c1ccc2nc(-c3ccccc3[N+](=O)[O-])[nH]c2c1,"inconclusive: 15.8 µM [quencher, side channel, partial curve]"
23,CN(C(=O)CSc1nc(N)c2c3c(sc2n1)CSC(C)(C)C3)c1ccccc1,"inconclusive: 0.0891 µM [fluorescent, side channel, full curve, poor fit]"
24,Cc1ccc2oc(C(=O)Nc3ccc(S(=O)(=O)Nc4onc(C)c4C)cc3)cc(=O)c2c1,"inconclusive: 4.47 µM [quencher, side channel, full curve]"
25,O=C1CSC(=S)N1c1cccc(Cl)c1,inactive
26,CCc1ccc(CNc2ccc(O)cc2)cc1,"inconclusive: 28.2 µM [quencher, side channel, partial curve]"
27,OCCCc1nc2ccccc2n1CCc1ccccc1,"inconclusive: 2.82 µM [quencher, side channel, partial curve]"
28,NS(=O)(=O)c1ccc(CCNC(=O)/C=C/c2cccc([N+](=O)[O-])c2)cc1,"inconclusive: 8.91 µM [quencher, side channel, partial curve]"

row,Structure (SMILES),Potency
1,COc1cccc(-n2c(CN3CCN(c4ccccn4)CC3)nc3ccc([N+](=O)[O-])cc3c2=O)c1,"inconclusive: 7.94 µM [quencher, side channel, partial curve]"
2,O=C(Nc1ccccc1)c1ccc[n+](Cc2ccc([N+](=O)[O-])cc2)c1,"inconclusive: 15.8 µM [quencher, side channel, partial curve]"
3,COc1ccc(C(=O)N/C(=C\c2ccc([N+](=O)[O-])cc2)C(=O)NC(CCSC)C(=O)O)cc1 (stereo not given),"inconclusive: 20 µM [quencher, side channel, partial curve]"
4,N#Cc1ccc2nc3c(nc2c1)CCCC3,"inconclusive: 28.2 µM [quencher, side channel, single point]"
5,CCCCN(CC)S(=O)(=O)c1ccc(C(=O)Nc2nnc(COC)o2)cc1,inactive
6,Cc1ccc(OCC(=O)Nc2ccc(C)c(S(=O)(=O)N3CCCCC3)c2)c([N+](=O)[O-])n1,"inconclusive: 14.1 µM [quencher, side channel, partial curve]"
7,COc1ccccc1-c1nc2c(c(SCC(=O)N3CCCCC3)n1)Cc1c(CO)cnc(C)c1O2,"inconclusive: 10 µM [quencher, side channel, partial curve]"
8,Nc1ccc(-c2cc3ccccc3oc2=O)cc1,"inconclusive: 15.8 µM [quencher, side channel, partial curve]"
9,C[N+]1(CC(=O)NNc2c3ccccc3nc3ccccc23)CCOCC1,"inconclusive: 14.1 µM [quencher, side channel, partial curve]"
10,Cc1ccc(NC(=O)COC(=O)COc2ccc(Cl)cc2)c([N+](=O)[O-])c1,"inconclusive: 7.94 µM [quencher, side channel, partial curve]"
11,O=C(c1cc([N+](=O)[O-])ccc1N1CCCCC1)N1CCCC1,"inconclusive: 31.6 µM [quencher, side channel, single point]"
12,CCCCCOc1ccc(C2NC(=O)NC2=O)cc1 (stereo not given),"inconclusive: 3.16 µM [quencher, side channel, single point]"
13,CCOC(=O)C1=C(C)N=c2s/c(=C\c3ccc(OC(C)=O)cc3)c(=O)n2C1/C=C/c1ccccc1 (stereo not given),"inconclusive: 0.631 µM [fluorescent, side channel, full curve, poor fit]"
14,CC(C)N(C(=O)CSc1nnc(CNc2ccc(F)cc2)o1)C(C)C,inactive
15,CC12CCC(C(=O)NNc3ccc([N+](=O)[O-])cc3)(OC1=O)C2(C)C (stereo not given),"inconclusive: 39.8 µM [quencher, side channel, single point]"
16,CC(C)c1ccc(NC(=O)CN2C(=O)c3ccccc3S2(=O)=O)cc1,inactive
17,Cc1nc(N=Nc2ccc(C(=O)O)cc2)c(COP(=O)(O)O)c(C=O)c1O,"inconclusive: 22.4 µM [quencher, side channel, single point]"
18,COc1ccc(C(=O)Nc2ccnn2C2CCN(Cc3ccc4nonc4c3)CC2)cc1,"inconclusive: 15.8 µM [quencher, side channel, partial curve]"
19,CC(C)(C)OC(=O)N1CCN(c2ccc([N+](=O)[O-])cc2)CC1,"inconclusive: 12.6 µM [quencher, side channel, partial curve, poor fit]"
20,O=C1NC(=S)N/C1=C/c1cccc([N+](=O)[O-])c1O,"inconclusive: 5.62 µM [quencher, side channel, partial curve]"
21,[O-][n+]1onc2c1CCc1nnccc1-2,"inconclusive: 25.1 µM [quencher, side channel, partial curve]"
22,CCc1cc(CNC(=O)c2ccc(OC3CCN(CCc4ccccc4)CC3)cc2)on1,inactive
23,O=C(NCC(=O)c1ccccc1)OCc1ccc([N+](=O)[O-])cc1,"inconclusive: 35.5 µM [quencher, side channel, single point]"
24,CCN1CCN(C2=C(NS(=O)(=O)c3ccc(NC(C)=O)cc3)C(=O)c3ccccc3C2=O)CC1,"inconclusive: 7.94 µM [quencher, side channel, partial curve]"
25,Cn1cnnc1Sc1ccc(C(=O)OCC(=O)Nc2cc(Cl)cc(Cl)c2)cc1[N+](=O)[O-],"inconclusive: 22.4 µM [quencher, side channel, partial curve]"
26,COc1ccc(CCNC(=O)c2cc(S(=O)(=O)N(C)c3ccccc3)ccc2Cl)cc1,"inconclusive: 3.55 µM [quencher, side channel, full curve, poor fit]"
27,COc1ccc(N=Cc2c(O)[nH]c3ccccc23)cc1,"inconclusive: 17.8 µM [quencher, side channel, partial curve]"
